The text below walks through data of paper PMC3972206.

By UniProt entry, the sequences of proteins in these tests, tags left out. Where a name states a change or a piece, a line headed by the entry shows the natural chain unless it says otherwise.
UniProt P07384: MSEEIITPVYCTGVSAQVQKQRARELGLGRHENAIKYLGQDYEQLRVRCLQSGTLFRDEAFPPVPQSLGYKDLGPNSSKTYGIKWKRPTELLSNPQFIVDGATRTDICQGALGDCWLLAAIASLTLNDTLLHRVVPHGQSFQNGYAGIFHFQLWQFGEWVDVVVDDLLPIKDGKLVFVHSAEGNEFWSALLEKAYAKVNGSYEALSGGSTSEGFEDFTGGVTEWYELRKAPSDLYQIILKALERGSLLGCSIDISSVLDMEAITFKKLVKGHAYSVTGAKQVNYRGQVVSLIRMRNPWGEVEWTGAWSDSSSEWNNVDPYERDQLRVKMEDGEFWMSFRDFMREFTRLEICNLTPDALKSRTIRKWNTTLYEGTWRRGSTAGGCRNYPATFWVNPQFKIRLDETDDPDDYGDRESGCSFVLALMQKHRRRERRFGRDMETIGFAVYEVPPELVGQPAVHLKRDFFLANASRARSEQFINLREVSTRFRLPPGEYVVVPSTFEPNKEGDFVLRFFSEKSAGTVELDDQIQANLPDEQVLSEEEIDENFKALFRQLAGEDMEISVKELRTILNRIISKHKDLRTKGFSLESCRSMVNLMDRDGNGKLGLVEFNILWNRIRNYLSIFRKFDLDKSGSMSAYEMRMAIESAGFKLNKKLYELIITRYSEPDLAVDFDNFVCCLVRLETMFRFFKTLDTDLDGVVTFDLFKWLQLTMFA
UniProt P04632: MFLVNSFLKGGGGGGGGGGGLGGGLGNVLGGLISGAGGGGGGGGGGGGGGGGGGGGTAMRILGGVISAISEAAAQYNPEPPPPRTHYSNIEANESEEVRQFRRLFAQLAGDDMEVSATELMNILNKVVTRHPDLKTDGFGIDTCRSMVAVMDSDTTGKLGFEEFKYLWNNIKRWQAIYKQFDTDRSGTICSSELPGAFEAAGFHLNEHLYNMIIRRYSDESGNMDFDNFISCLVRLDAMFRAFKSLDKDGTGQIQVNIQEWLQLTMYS
UniProt P28340: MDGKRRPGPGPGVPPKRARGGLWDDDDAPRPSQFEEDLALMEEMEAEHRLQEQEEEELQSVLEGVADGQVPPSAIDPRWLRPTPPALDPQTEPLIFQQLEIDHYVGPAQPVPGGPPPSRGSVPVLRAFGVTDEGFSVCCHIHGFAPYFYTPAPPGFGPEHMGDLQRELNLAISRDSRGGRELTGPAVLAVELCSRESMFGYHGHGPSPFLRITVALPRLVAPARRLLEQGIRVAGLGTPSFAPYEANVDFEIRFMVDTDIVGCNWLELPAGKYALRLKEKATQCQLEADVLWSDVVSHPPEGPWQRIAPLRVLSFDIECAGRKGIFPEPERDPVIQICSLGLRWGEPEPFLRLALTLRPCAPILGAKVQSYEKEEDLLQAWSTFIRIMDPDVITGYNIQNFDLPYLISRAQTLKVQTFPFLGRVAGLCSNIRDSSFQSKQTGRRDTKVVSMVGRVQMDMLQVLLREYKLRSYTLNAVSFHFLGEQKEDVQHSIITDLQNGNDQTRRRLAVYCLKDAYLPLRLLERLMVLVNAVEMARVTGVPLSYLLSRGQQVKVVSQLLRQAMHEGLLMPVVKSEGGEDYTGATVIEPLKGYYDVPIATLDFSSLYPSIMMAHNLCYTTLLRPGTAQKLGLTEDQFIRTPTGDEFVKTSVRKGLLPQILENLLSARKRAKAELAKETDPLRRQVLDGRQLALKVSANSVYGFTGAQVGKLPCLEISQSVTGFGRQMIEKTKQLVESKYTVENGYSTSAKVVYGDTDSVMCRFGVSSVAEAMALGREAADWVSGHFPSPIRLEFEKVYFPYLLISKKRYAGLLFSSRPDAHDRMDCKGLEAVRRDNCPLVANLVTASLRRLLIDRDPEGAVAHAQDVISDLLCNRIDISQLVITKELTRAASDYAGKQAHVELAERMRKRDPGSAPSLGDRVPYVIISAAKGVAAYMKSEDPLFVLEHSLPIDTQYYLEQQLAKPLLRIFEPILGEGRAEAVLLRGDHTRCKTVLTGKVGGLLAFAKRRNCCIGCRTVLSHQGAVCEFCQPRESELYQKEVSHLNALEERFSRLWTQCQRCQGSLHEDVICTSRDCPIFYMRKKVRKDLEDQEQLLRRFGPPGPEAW
UniProt P49005: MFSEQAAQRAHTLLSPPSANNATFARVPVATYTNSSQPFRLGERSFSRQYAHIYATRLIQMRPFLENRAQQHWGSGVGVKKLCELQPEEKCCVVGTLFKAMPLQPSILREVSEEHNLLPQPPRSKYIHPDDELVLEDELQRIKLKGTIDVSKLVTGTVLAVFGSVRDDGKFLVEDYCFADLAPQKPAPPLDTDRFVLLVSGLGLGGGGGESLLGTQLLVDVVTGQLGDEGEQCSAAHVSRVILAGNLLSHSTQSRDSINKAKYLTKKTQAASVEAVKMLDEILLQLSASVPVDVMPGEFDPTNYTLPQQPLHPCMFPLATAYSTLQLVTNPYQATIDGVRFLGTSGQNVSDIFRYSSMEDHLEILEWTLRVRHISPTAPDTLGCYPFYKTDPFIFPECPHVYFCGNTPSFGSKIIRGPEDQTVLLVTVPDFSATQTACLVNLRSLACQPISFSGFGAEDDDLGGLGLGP
UniProt P12004: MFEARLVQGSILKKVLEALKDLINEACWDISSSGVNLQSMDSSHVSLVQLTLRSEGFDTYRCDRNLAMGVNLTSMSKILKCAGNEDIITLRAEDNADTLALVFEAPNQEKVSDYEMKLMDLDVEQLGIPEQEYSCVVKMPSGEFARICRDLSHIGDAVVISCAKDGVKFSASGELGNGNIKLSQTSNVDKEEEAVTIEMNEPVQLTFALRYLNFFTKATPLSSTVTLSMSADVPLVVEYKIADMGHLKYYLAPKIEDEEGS

No constants are given. Whether binding was seen depends on the method and setting. Some binding calls cover weakened binding; strength is not graded here. For some of these results: Where a sequence is shown, tags or fusion partners need not be part of it.

The target in assay [1] is T1, Active human μ-calpain (calpain I) (human) (UniProt P07384+P04632). Briefly: co-IP; 0.5 μg PCNA and 0.5 μg μ-calpain; precipitated with anti-μ-calpain antibody; blot with PC-10 anti-PCNA; normal rabbit IgG as control; both purified.
Assay [2] addresses His-tagged p125, catalytic subunit of human DNA polymerase delta (human) (UniProt P28340). Briefly: pull-down; Ni-NTA pull-down; 0.5 μg His-tagged p125 as bait with 0.5 μg μ-calpain in 500 μl binding buffer (50 mM NaH2PO4, 300 mM NaCl, 20 mM imidazole, 10% glycerol, pH 8.0); nickel beads pre-treated with 2% BSA; blot with anti-μ-calpain; both purified.
Assay [3] has as its target GST tagged full-length p50 subunit of human DNA polymerase delta (human) (UniProt P49005). Briefly: pull-down; GST pull-down; GST-tagged p68, p50 or p12 (or GST) as bait on glutathione-Sepharose 4B beads, μ-calpain as prey; blot with anti-μ-calpain; both purified.
Assay [4] concerns the target T2, GST tagged full-length p12 subunit of human DNA polymerase delta (human) (UniProt Q9HCU8).
T2 sequence: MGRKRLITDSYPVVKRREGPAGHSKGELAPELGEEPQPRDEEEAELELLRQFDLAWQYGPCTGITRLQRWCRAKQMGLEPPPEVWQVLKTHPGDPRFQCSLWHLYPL
The description is as above.

In assay [5] the target is T3, GST tagged full-length p68 subunit of human DNA polymerase delta (human) (UniProt Q15054).
T3 sequence: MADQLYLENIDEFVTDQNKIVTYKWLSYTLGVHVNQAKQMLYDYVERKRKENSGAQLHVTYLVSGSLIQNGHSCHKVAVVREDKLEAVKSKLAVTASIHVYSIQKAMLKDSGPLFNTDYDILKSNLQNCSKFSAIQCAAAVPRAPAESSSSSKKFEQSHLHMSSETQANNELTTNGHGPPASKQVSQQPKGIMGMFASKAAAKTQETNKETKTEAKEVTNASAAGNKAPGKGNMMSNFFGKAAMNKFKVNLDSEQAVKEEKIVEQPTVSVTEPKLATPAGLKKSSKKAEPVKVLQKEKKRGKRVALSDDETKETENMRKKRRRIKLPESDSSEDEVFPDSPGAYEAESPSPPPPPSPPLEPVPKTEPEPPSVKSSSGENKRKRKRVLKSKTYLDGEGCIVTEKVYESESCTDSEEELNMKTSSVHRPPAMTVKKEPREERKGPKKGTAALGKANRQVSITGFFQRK
The description is as above.

Assay [6] addresses Recombinant human PCNA (human) (UniProt P12004). Briefly: co-IP; 0.5 μg PCNA and 0.5 μg μ-calpain; precipitated with PC-10 anti-PCNA mouse monoclonal antibody and protein A/G agarose; blot with anti-μ-calpain; normal mouse IgG as control; both purified.
Assay [7] concerns the target T1, Active human μ-calpain (calpain I) (human). Put plainly: co-IP; 0.5 μg His-tagged p125 with 0.5 μg μ-calpain in 1×PBS, 1% NP-40, protease inhibitor cocktail; precipitated with anti-μ-calpain antibody and protein A/G agarose pre-treated with 2% BSA; blot with anti-p125; normal rabbit IgG as control; both purified.

For “Recombinant human PCNA (from UniProt P12004 1-261)”, the binding result in assay [1] is reported as “binds”.

As for “Active human μ-calpain (calpain I) (from UniProt P07384 1-714; P04632 1-268) (enzyme)”, the binding result in assay [2] is listed as “binds”; in assay [3], “binds”; in assay [4], “no binding”; in assay [5] it was “binds”; in assay [6], “binds”.

Take “His-tagged p125, catalytic subunit of human DNA polymerase delta (from UniProt P28340 1-1107)”: the binding result in assay [7] is “binds”.
